Among the data in PubChem BioAssay AID488969 (Vanderbilt High Throughput Screening Facility, 2010) are z-score values, retold here.

Structures are written as SMILES. Over roughly 110,000 compounds, “z-score” has its median near -0.1; the highest 2% begin near 2. This is one part of the list. Active and inactive are the calls of the source.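 Rule for the calls: active = z-score in the third read window above 3 or below -3; inactive = the rest.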

For the assay, the target named is Metabotropic glutamate receptor 8 (Rattus norvegicus) (UniProt P70579). The experiment in a line: mGluR8 Gi/Go-coupled signaling modulation – cell-based, rat, thallium flux, HTS, primary screen (AID 488969). The following applies: HEK293 rat mGluR8, GIRK (G protein-gated inwardly rectifying potassium channel) thallium flux, FluoZin2; at 10 µM; stronger effect = higher value; submaximal glutamate (EC20) added with thallium.
UniProt P70579, sequence (P70579 whole entry, looked up): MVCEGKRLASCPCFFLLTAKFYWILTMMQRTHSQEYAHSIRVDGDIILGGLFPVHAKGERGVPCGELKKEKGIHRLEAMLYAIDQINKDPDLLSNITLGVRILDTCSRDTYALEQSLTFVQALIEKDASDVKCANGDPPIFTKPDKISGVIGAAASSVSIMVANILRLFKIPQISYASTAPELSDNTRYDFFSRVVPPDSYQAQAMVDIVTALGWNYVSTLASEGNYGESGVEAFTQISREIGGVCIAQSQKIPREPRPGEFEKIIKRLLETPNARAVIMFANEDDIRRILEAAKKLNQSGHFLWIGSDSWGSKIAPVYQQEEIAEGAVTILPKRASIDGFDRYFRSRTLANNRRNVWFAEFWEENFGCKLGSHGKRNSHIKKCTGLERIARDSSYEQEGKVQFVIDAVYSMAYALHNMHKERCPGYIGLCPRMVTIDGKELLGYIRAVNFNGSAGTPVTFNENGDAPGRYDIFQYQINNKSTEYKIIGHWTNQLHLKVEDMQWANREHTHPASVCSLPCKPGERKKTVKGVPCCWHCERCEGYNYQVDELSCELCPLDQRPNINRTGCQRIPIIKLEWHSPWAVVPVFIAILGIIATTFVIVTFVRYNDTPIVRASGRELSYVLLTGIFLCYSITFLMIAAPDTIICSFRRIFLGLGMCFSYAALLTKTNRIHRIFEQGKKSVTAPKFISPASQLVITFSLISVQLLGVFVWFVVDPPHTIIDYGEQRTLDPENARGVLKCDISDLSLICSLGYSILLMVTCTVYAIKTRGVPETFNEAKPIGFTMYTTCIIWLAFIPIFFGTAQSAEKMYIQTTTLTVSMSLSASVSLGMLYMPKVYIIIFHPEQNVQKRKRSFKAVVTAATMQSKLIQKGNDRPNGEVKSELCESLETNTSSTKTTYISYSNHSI
The molecule `Cc1ccc(S(=O)(=O)NC2=NCCCCC2)cc1` displayed a z-score of -0.00378. The same measure for `COC(=O)Nc1ccc(C)c(NC(=O)OC)c1`: -0.0565; for `CC(C)c1ccc(NC(=O)CCNS(=O)(=O)c2cccc3nonc23)cc1`: 0.647; for `COC(=O)CC/C(O)=C1\C(=O)CC(C)(C)CC1=Nc1ccccc1OC`: -2.11.

Molecule `CCCC(=O)Nc1ccc(N2CCN(C(=O)c3ccccc3C)CC2)cc1` had a z-score of 0.0557. `CCn1c(SC(C)C)nnc1-c1c[nH]c2ccccc12`: the z-score worked out at 0.318. In turn, `Cc1cc(C(C)(C)C)cc(S(=O)(=O)NCC(=O)O)c1C` gave a z-score of -0.242. The same measure for `Nc1ccc(-c2nc3ccc(N)cc3o2)cc1`: -0.187; for `Cc1nn(Cc2ccccc2)c(C)c1NC(=O)CSc1nc2sc3c(c2c(=O)n1C)CCC3`: -2.27; for `COC(=O)c1ccc(CSc2ncnc3ccccc23)o1`: -0.436. Under `Cc1cc(C)nc(SCNC(=O)c2ccc(Cl)cc2)n1` stands -0.0711; under `COc1ccc(S(=O)(=O)N2CCC(C(N)=O)(N3CCCCC3)CC2)cc1`, -0.324; under `O=C(/C=C/c1ccc([N+](=O)[O-])cc1)NCc1cccs1`, -0.0179.

`O=C(NCc1cccnc1)c1ccccn1`: the z-score stood at 0.228. Under `CCOC(=O)c1ccccc1NC(=O)Cn1cnc2c(oc3ccccc32)c1=O` stands 0.284; under `CCOc1ccc(N(CCC#N)S(=O)(=O)c2ccc(OC)cc2)cc1`, -0.294.

`O=C(CSc1nc(-c2ccccc2)cs1)Nc1cccc([N+](=O)[O-])c1`: the z-score is -0.251. Under `Cc1nn(C(C)CC(=O)O)c(C)c1Br` (configuration not stated) stands -0.495. Consider `COc1ccc(NC(=O)Nc2nc3c(s2)CCCC3)cc1`, for which the z-score was -0.842. For the molecule `O=C(O)Cn1cc(C(=O)C2CC2)c2ccccc21`, the z-score was -0.0301. `Cc1ccc(C2=CC(c3cccs3)n3nnnc3N2)cc1` (configuration not stated) came in with a z-score of 0.0575. The same measure for `Cc1ccc2c(c1)c(=O)c1c3n2CCN(C(=O)CCl)C3CC1` (configuration not stated): -0.296; for `O=C(NCCCN=C1NS(=O)(=O)c2ccccc21)c1ccc(S(=O)(=O)N2CCCCC2)cc1`: 0.0192; for `Cc1ccc(C)c(NC(=O)CSc2nnc(CCNC(=O)OC(C)(C)C)o2)c1`: 0.761. Under `CC(C)C(=O)N1CCC(CN=Cc2c(O)n(C3CCCCC3)c(=O)n(C3CCCCC3)c2=O)CC1` stands -0.818. Under `OC(c1ccc(Cl)cc1)c1nnc(-c2ccccc2)o1` (configuration not stated) stands 0.955; under `O=C(OCCN1C(=O)c2ccccc2C1=O)c1cc2ccccc2o1`, -0.735; under `COc1cc(C(=O)NCCOc2cc(C)cc(C)c2)c(Br)c(OC)c1OC`, -0.0364. The molecule `COc1ccc(NC(=O)CSc2nnc(Cn3cnc4ccccc43)n2C)cc1` returned a z-score of 0.66. Molecule `Cc1ccc(-c2nnc(-c3ccc(NC(=O)Cc4cccs4)cc3)o2)cc1` showed a z-score of -0.144. Turning to `O=C(Nc1nc(-c2cccs2)cs1)c1ccc(Cl)cc1`, the z-score was -0.276. As for `COc1ccc(N2C(=O)CN=C2Nc2nc(C)cc(C)n2)cc1OC`, the z-score is -0.0876. The same measure for `COC(=O)c1sc(S(=O)(=O)N2CCCCC2)c(C(=O)OC)c1C`: -0.182; for `O=C(CCn1cnc2ccccc2c1=O)Nc1nc(-c2ccc(Br)cc2)cs1`: -0.0773; for `Cc1nn2c3ccccc3n(C)c2nc1=O`: -0.18. As to `N#C/C(=C\c1cc2ccccc2nc1N1CCCCC1)C(N)=O`, the z-score was -0.818.

`O=C(NCc1ccc(F)cc1)C(c1ccncc1)N(C(=O)c1csnn1)C1CC1` (configuration not stated): the z-score amounted to 0.0871. The same measure for `CCn1c(SCC(=O)Nc2ccc(N3CCOCC3)c(Cl)c2)nnc1-c1ccc(N)cc1`: 2.78.

In turn, `Brc1ccc(Sc2cnc3ccccc3n2)cc1` came in with a z-score of 0.523. In the case of `CNS(=O)(=O)c1cc(NC(C)=O)c(C)cc1C`, the z-score was determined as 1.36. For `Cc1ccc(C(=O)NCCCCNC(=O)c2ccc(C)o2)o1`, the z-score came to 0.0778. `COc1ccc(NC(=O)c2ccccn2)cc1OC` gave a z-score of -0.0195. The same measure for `Cc1cc(C(C)(C)C)ccc1OCCN(C)C`: 1.12. `CCOC(=O)C1CCCN(C(=O)c2cncc(Br)c2)C1` (configuration not stated) yielded a z-score of 0.163.

The molecule `CCC(C)(C(=O)NC1CCCCC1)N(C(=O)C1CCC(=O)N1)c1ccccc1` (configuration not stated) showed a z-score of 0.963. Under `COc1ccc(N2C(=O)CC(N(Cc3ccc(S(N)(=O)=O)cc3)C(C)=O)C2=O)cc1` (configuration not stated) stands -0.0773; under `O=C(Nc1ccncc1)Nc1ccccn1`, -0.133; under `CC1(C)OC(=O)C(=CNc2cccc(C(=O)O)c2)C(=O)O1`, 0.00198. Regarding `CCCc1nc(SC2CCCC2)c2c(=O)n(C)c(=O)n(C)c2n1`, the z-score came to 0.0535. In turn, `COc1ccc(OC2C(=O)N(Cc3ccc4c(c3)OCO4)C2c2sccc2C)cc1` (configuration not stated) yielded a z-score of -0.396. The same measure for `CCCCc1nn(-c2cc(Cl)ccc2OC)c2c1C(=O)CC(C)(C)C2`: -1.66; for `COc1ccc(-c2cnn3c4c(c(C)nc23)CCN4C(C)C)cc1OC`: -0.646.

For `CCOC(=O)N1CCN(C(=O)c2cc3c(-c4ccc(Cl)cc4)nn(C)c3s2)CC1`, the z-score was -0.669. The same measure for `Fc1ccc(-n2c(Cc3ccccc3)nnc2SCc2nc(-c3ccc(Cl)cc3)no2)cc1`: 0.224; for `Fc1cnc(N2CCOCC2)nc1N1CCc2ccccc21`: -0.743; for `COc1ccc(CCNC(=O)c2ccc3c(=O)n(Cc4ccco4)c(=S)[nH]c3c2)cc1OC`: -0.965. `CCCCCc1c(O)c2ccccc2[nH]c1=O` returned a z-score of -0.405.

`CC(OC(=O)c1c2c(nc3ccccc13)/C(=C\c1ccc3c(c1)OCO3)CCC2)C(=O)Nc1ccc(S(N)(=O)=O)cc1` (configuration not stated) returned a z-score of -0.411. Take `COCCNC(=O)CN(c1cc(C(F)(F)F)ccc1Cl)S(C)(=O)=O`: the z-score was 1.88.

`O=[N+]([O-])c1ccccc1/C=N/n1c(-c2cccnc2)n[nH]c1=S` registered a z-score of 0.416. Under `CCN(CC)c1nc(C(N)=O)cc(-c2ccccc2)n1` stands -0.396; under `COc1cc(Cl)c(C)cc1NC(=O)[C@@H]1CCCN1C(=O)c1cccs1`, -0.141; under `COc1ccccc1N1CCN(C(=O)c2ccc(C(C)(C)C)cc2)CC1`, -0.869. Under `Clc1ccc(CN2CCCCCCC2)cc1Cl` stands -0.202; under `CCn1c(SC/C=C/c2ccccc2)nnc1-c1cccs1`, -1.61. `Cc1ccc(S(=O)(=O)/C=C/c2ccccc2)cc1` returned a z-score of -0.478. The same measure for `Cc1ccc(C(=O)N/C(=C/c2ccc(F)cc2)C(=O)NCc2ccncc2)cc1`: 0.0237; for `Cc1ccc(/C=N\NC(=O)c2cc(OCC(F)(F)F)ccc2OCC(F)(F)F)cc1`: 0.196; for `Cc1ccc(SCCNC(=O)/C=C/c2ccc([N+](=O)[O-])cc2)cc1`: 0.657. `O=C1CC(c2cc3c(cc2Br)OCO3)C2=C(CCCC2=O)N1` (configuration not stated) came in with a z-score of 0.316. Under `O=C(CN1C(=O)c2cccc3cccc1c23)N1CCc2ccccc2C1` stands -0.142; under `COC(=O)c1c(NC(=O)CN(c2ccccc2)S(C)(=O)=O)sc2c1CCCC2`, 0.77.

On to `COC(=O)CN1C(=S)N(Cc2ccccc2)C(=O)C1CC(=O)Nc1ccc(Br)cc1` (configuration not stated), for which the z-score was -0.0486.

`O=c1c2ccccc2nc2n1C(CSc1ccc(Br)cc1)CN2` (configuration not stated) displayed a z-score of -0.025. On to `CCCCn1c(=O)n(C)c(=O)c2c(C(F)(F)F)cc(-c3ccncc3)nc21`, for which the z-score was found to be 0.277. For the molecule `COc1cc(/C(C)=N/Nc2ccc(C(=O)O)cc2)cc(OC)c1OC`, the z-score was -0.226.

For `CCc1cc2c(=O)c(-c3ccc4c(c3)OCCO4)coc2cc1OC(=O)c1ccco1`, the z-score is -0.00568. As for `CCOc1ccccc1-n1c(SCC(N)=O)nnc1-c1ccco1`, the z-score is -0.718.

Molecule `O=C1OCCC1Sc1nnc(-c2ccc(Cl)cc2)n1Cc1ccccc1` (configuration not stated) yielded a z-score of -0.478. Under `O=C(c1cc(N2C(=O)C3C4CCC(C4)C3C2=O)ccc1Cl)N1CCN(c2ccccc2F)CC1` (configuration not stated) stands -0.388. The same measure for `Cc1ccccc1NC(=O)c1cc(S(=O)(=O)N2CCCCC2)cs1`: -0.216; for `CC(=O)c1cccc(NS(=O)(=O)N2CCCCC2)c1`: 0.0646; for `Nc1c(C(=O)OCC2CCCO2)c2nc3ccccc3nc2n1C1CCCCC1` (configuration not stated): -0.431. `COc1ccc(-c2nc(C#N)c(NC(C)C)o2)cc1`: the z-score is -0.503. The same measure for `S=C(Nc1ccc(Oc2ccccc2)cc1)NC1CCCC1`: active: 7.92. `O=C(O)c1ccc(S(=O)(=O)Cc2ccccc2)cc1` registered a z-score of 0.038. As to `Cc1ccc(C)c(-n2c(C)cc(/C=N/NC(=O)c3c(C)nc4cc(C)ccn34)c2C)c1`, the z-score is -0.281. `Nc1nc2ccccc2n1C(=O)c1ccco1` registered a z-score of 0.192.

Consider `N#Cc1nc(-c2ccc(Cl)cc2)oc1NCc1ccco1`, for which the z-score was -0.125. Under `COc1ccc(C(=O)COC(=O)CNC(=O)c2cc(OC)cc(OC)c2)cc1` stands -0.208; under `COc1ccc(NC(=O)/C(=C\c2ccc(OS(=O)(=O)c3ccc(C)cc3)cc2)NC(=O)c2ccccc2)cc1`, -0.0466. The molecule `COc1ccc(C(=O)NC(C)c2nnc(SCc3ccc(Cl)c(Cl)c3)n2C)cc1` (configuration not stated) showed a z-score of -0.0457. The same measure for `CC(OC(=O)CCc1nc2ccccc2c(=O)[nH]1)C(=O)NC1CCCC1` (configuration not stated): -0.356; for `O=C(NNC(=O)c1sccc1-n1cccc1)c1cccc(Cl)c1`: active: 4.1. As to `CCCCS(=O)(=O)Nc1ccc2ncn(C)c(=O)c2c1`, the z-score turned out to be 0.477. `NC(=O)c1c(NC(=O)c2ccco2)sc2c1CCC2` came in with a z-score of 1.41. `S=c1[nH]nc(-c2ccc(Cl)cc2)n1-c1ccc2c(c1)OCCO2` displayed a z-score of -0.419. The same measure for `CN(C)CC(O)COc1ccc(C(C)(C)c2ccc(OCC(O)CN(C)C)cc2)cc1` (configuration not stated): 0.615; for `Cc1ccc(C(=O)NN2C(=O)CSC2=S)cc1`: -0.108. For the molecule `CN(C)c1ccc(C2OC(=O)C(C)(C)C(=O)C2(C)C)cc1` (configuration not stated), the z-score is 0.264. `Cc1cccnc1NC(=O)c1c(O)c2ccccc2n(C)c1=O` yielded a z-score of 0.0459. In the case of `Cc1nn2c(nc(N3CCCCC3)c3ccccc32)c1C=O`, the z-score is -0.324.

With `Cc1cccc(NC(=S)Nc2ccccn2)c1C`, the z-score came out at 0.00896. Molecule `COc1ccc(Cl)cc1N1CC(c2nc3ccccc3[nH]2)CC1=O` (configuration not stated) came in with a z-score of -0.34. The same measure for `O=C1C2CCCN2C(c2ccc(F)cc2)N1c1ccc(Cl)cc1` (configuration not stated): -0.573; for `Fc1ccc(Cn2nnnc2CN2CCN(C3CCCC3)CC2)cc1`: 0.209.

As to `CC1CN(c2ccccc2)C(=O)CS1` (configuration not stated), the z-score turned out to be 0.219. The same measure for `COc1cc(/C=C2/SC(=S)N(CC(=O)Nc3nc4ccccc4s3)C2=O)cc(OC)c1OC`: -0.195; for `O/N=C1\CCc2cc(Cl)ccc21`: 0.365; for `O=C(Nc1nc2ccc3ccccc3c2s1)c1ccc(N2CCCCC2)c([N+](=O)[O-])c1`: -0.197. Under `Cc1cc(NC(=O)C2CC(c3ccc(F)cc3)=NO2)no1` (configuration not stated) stands 0.0549; under `CCc1nc2sc3ccccc3c(=O)c2c(=O)n1CCOC`, 0.000298.
